Test results: PubChem BioAssay AID1963576 (National Center for Advancing Translational Sciences (NCATS), 2024)
The whole screen tested about 46,000 compounds, of which about 60 (0.1%) were called active. Roughly 3% stayed inconclusive and do not appear here. Calls come from the whole dose curve; as a rule, active = well fitted inhibition curve with a large enough effect; inconclusive = small, poorly fitted or top-dose-only effect; inactive = no such curve, though single readings can be large or run the other way. The list shows a part of the results.

Assay: Primary qHTS assay for Inhibitors of ovarian cancer metastasis using an organotypic tumor microenvironment (TME) model.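 For activity change, negative = inhibition: plate controls were DMSO wells for no effect and tomatine positive control wells for full effect.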 Note: nearly all actives have a fitted effect of over 65% in size.
Conditions: SKOV3ip1-GFP adhesion/invasion on 3D omental model, fluorescence; series mostly up to 45.8 µM; activity change, negative = inhibition: at the top concentration
How it was run: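 Adhesion/invasion was scored as fixed GFP-labeled SKOV3ip1 cell counts (488/509 nm), normalized to DMSO and tomatine controls. Cancer cells in serum-free medium, with four compound doses (0.36-46 umol/L), sat 2 hr at RT then 16 hr at 37 C on a 48 hr fibroblast/mesothelial/ECM culture.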

Activity change, negative = inhibition, inactive:
CCN1C(=O)c2ccccc2Sc2ccc(NC(=O)Nc3cccc([N+](=O)[O-])c3C)cc21 10.2%
CCC1=C(c2ccc(C)cc2)S(=O)(=O)N=C1N1CCC(C(=O)NCc2ccc(N(C)C)cc2)CC1 4.88%
O=C(NCCc1csc2nc(-c3ccccc3F)nn12)C(=O)Nc1cc(F)ccc1F -0.89%
CCOC(=O)c1c(C)oc2ncnc(Nc3cc(C)cc(C)c3)c12 3.4%
CCCCOc1ccc(C(=O)NCc2nnnn2-c2ccc(C)c(C)c2)cc1 4.37%
COC(=O)c1c(NC(=O)/C(C#N)=C/c2ccccc2)sc2c1C(C(=O)OC)CC2 (centres undefined) 2.55%
CCc1ccccc1Nc1sc(C(=O)c2cccc(OC)c2)c(N)c1S(=O)(=O)c1ccccc1 -5.76%
CC1CCCN(C(=O)Cn2ncc3c([nH]c4ccccc43)c2=O)C1 (centres undefined) 5.17%
Cc1cccc(N2CCN(C(=O)c3cnc(N4CCCC4)nc3C)CC2)c1C -3.5%
Cc1ccccc1OCC(=O)N1CCC(c2nc3ccccc3s2)CC1 -6.96%
COc1ccc(OCc2ccc(-c3nc(C#N)c(N4CCCCC4)o3)o2)cc1 -6.52%
CCOC(=O)N1CCc2c(sc3c2c(=O)n(-c2ccc(CC)cc2)c(=O)n3C)C1 -16.7%
CCc1ccccc1NC(=O)Cn1c(=O)ccc2cc(S(=O)(=O)N3CCCC3)ccc21 63%
CCC(C(=O)O)n1ccc2cc(S(=O)(=O)N3CCCCC3)ccc21 (centres undefined) 3.46%
CCOC(=O)c1c(C)[nH]c(C)c1S(=O)(=O)N1CCC(C(=O)NCc2cccc(OC)c2)CC1 -9.02%
COc1ccc(S(=O)(=O)N2Cc3ccccc3CC2C(=O)Nc2ccc(C)cc2C)cc1OC (centres undefined) -1.88%
Cc1ccc(NC(=O)Cn2nc(N3CCN(c4ccccc4)CC3)ccc2=O)cc1F 3.23%
COc1ccc(-n2c(=O)c3sc4ccccc4c3n(Cc3ccccc3C)c2=O)cc1OC 46.5%
COc1ccc(C(=O)c2c(N)c(C(=O)Nc3cccc(OC)c3)c3ccccn23)cc1 2.39%
CCOc1ccc(C2=CC(c3cccc(Br)c3)n3c(nc4ccccc43)N2)cc1Cl (centres undefined) 0.867%
Cc1cc(C)cc(-n2c(C)nc3cc(C(=O)O)ccc32)c1 -3.35%
Cc1cc(C)c(S(=O)(=O)NCCc2cc3ccc(C)c(C)c3[nH]c2=O)c(C)c1 -16.6%
Cc1cccc(OCc2nc(CC(=O)Nc3ccc(C)c(C)c3)cs2)c1 -1.9%
CCOc1ccc(NC(=O)C2CCN(C(=O)N3CC(C)Oc4ccc(Cl)cc43)CC2)cc1 (centres undefined) -1.63%
COc1cc(-c2cc3n(C)c(C)c(CCC(=O)O)c(=O)n3n2)cc(OC)c1OC -19.1%
Cc1ccc(CNC(=O)CCC(=O)N2CC3CCCN3c3ccccc32)cc1 (centres undefined) 0.0577%
Cc1cc2oc(C(=O)Nc3ccc(S(=O)(=O)N(C)Cc4ccccc4)cc3)cc(=O)c2cc1C 0.963%
Cc1c(CNC2CCCCC2)c(C(=O)O)c(C)n1Cc1c(F)cccc1Cl 8.83%
Cc1ccc(NC(=O)CCCn2c(=O)c3cccn3c3ccccc32)c(Cl)c1 7.31%
COc1ccccc1N1CCN(c2ccc(NC(=O)c3ccc(C)cc3)cc2C(=O)O)CC1 10%
COc1cc(OC)c(NC(=O)c2csc3c2CCC(C)C3)cc1Cl (centres undefined) 19.8%
CCOc1ccccc1NC(=O)Cn1c(=O)n(CCC(=O)NCc2ccc3c(c2)OCO3)c(=O)c2ccccc21 -0.566%
COc1ccc(CCNC(=O)CCc2c(C)nc3c(c(C)nn3-c3ccc(C)c(C)c3)c2C)cc1OC 74.3%
COc1ccccc1CNC(=O)c1cc2cc3ccc(Cl)cc3nc2o1 -1.32%
CCc1ccccc1N1CC(c2nc3ccccc3n2CCCOc2ccc(Cl)cc2)CC1=O (centres undefined) -7.38%
Cc1cc(Cl)ccc1NC(=O)c1cccc(NC(=O)N2CCSc3ncccc32)c1 -4.73%
O=C(CSC1=Nc2ccccc2C2=NC(CCC(=O)NC3CCCCC3)C(=O)N12)Nc1cccc(C(F)(F)F)c1 (centres undefined) -20.6%
COc1ccc(CNC(=O)c2cnc3sc(N4CCOCC4)nn3c2=O)cc1 3.39%
COc1cc(OC)c(NC(=O)N2CCSc3ccccc32)cc1Cl -0.759%
Nc1nnc(SCC(=O)Nc2ccc(Cl)cc2)s1 10.3%
CCOc1ccc(NC(=O)C(CC)n2c(=O)c(-c3ccccc3NC(C)=O)nc3ccccc32)cc1 (centres undefined) -0.582%
Cc1ccc(CNC(=O)Cn2cc(S(=O)(=O)Cc3ccccc3Cl)c3ccccc32)cc1 -16.2%
COc1ccccc1OCCSc1nc(-c2ccc(C(C)(C)C)cc2)nc2cc(=O)[nH]n12 -7.41%
CCOc1ccc(C(=O)N2CCC(c3nnc(-c4ccccc4OC)o3)CC2)cc1 -4.77%
O=C(CCc1ccccc1)NCc1nc2cccnc2n1Cc1ccc(F)cc1 0.148%
N#Cc1ccccc1CN1C(=O)c2ccccc2Sc2ccc(C(=O)OCc3ccco3)cc21 -18.2%
CCNC(=O)CC1C(=O)N(c2ccc(F)cc2)C(=O)N1CCOC (centres undefined) 4.6%
COc1ccccc1CNC(=O)c1ccc(Cn2c(SCc3ccccc3)nc3cccnc32)cc1 4.29%
Fc1ccc(-n2ncc3c(NC4CCCCCC4)ncnc32)cc1 -0.55%
CCOC(=O)c1c(NC(=O)CCCOc2ccccc2C)sc2c1CCC(C)C2 (centres undefined) 2.49%
CCOc1ccc(NC(=O)CCc2c(C)nc3nc(C)nn3c2C)cc1 4.22%
COC(=O)C(CCSC)NC(=O)C1CCN(c2ncnc3c2nc2n3CCCCC2)CC1 (centres undefined) 6.07%
CCOC(=O)c1c(C)oc2nc(C)nc(NCCCN3CCN(c4ccccc4)CC3)c12 -3.81%
CCOc1ccc(OCC)c(NC(=O)c2cc(S(=O)(=O)N3CCCC3)cn2C)c1 1.24%
COc1ccc(NC(=O)CN2CCN(Cc3ccccc3)S2(=O)=O)c(OC)c1 -3.95%
CCOC(=O)N1CCc2c(sc3c2c(=O)n(-c2ccccc2)c(=O)n3CC(=O)Nc2ccc(OC)cc2OC)C1 -2.15%
O=C(Nc1ccc(Cl)cc1)c1ccc2c(c1)N(Cc1ccccc1)CCS2 9.01%
O=c1c(-c2ccc(O)cc2)coc2cc(OC3O[C@H](CO)[C@H](O)[C@H](O)[C@H]3O)cc(O)c12 (some centres undefined) -37.6%
CC(C)c1ccc(NC(=O)CN2C(=O)C3(SCC(=O)N3c3ccc(F)cc3)c3ccccc32)cc1 (centres undefined) -0.358%
Cc1ccc(N2CCn3c2nc2c3c(=O)n(Cc3cccc(Cl)c3)c(=O)n2C)cc1C 4.17%
Cc1nc(CC(=O)Nc2ccc(C(N)=O)cc2)cs1 3.89%
CCSC1=NC2(CCN(C(=O)NC3CCCCC3)CC2)N=C1c1ccc(OC)cc1 0.229%
CCCOc1ccc(CC2C(=O)Nc3ccc(Br)cc32)cc1 (centres undefined) -25.5%
CCN(C(=O)CSc1nc2ccccc2nc1Cc1ccccc1OC)c1ccccc1 -11.8%
O=C(CN1C(=O)CCSc2ccc(S(=O)(=O)N3CCCC3)cc21)Nc1ccccc1Cl 3.18%
CCCC12CN3CC(CCC)(CN(C1)C3c1c[nH]c3ccc(OC)cc13)C2=O (centres undefined) 0.649%
CCOCCCNC(=O)C(c1ccc(OC)cc1)N(Cc1cccs1)C(=O)CNC(C)=O (centres undefined) 16.5%
CC(=O)Nc1ccc(S(=O)(=O)NC2(C(F)(F)F)C(=O)Nc3c2c(=O)[nH]c(=O)n3-c2ccc(C)cc2)cc1 (centres undefined) -0.347%
Cc1ccc(C(=O)CC2(O)C(=O)N(CCc3ccccc3)c3ccc(Br)cc32)cc1 (centres undefined) -2.27%
O=c1oc2ccc(Cl)cc2cc1-c1nc(-c2cccs2)no1 -8.45%
CCOC(=O)c1cc2c(=O)n3ccccc3nc2n(CCCOC)c1=NC(=O)c1cc2ccccc2o1 0.314%
Cc1ccc(-n2nc3c(N4CCCC(C(=O)NCc5ccccc5C)C4)nnc(C)c3c2C)cc1 (centres undefined) -1.11%
CCOc1cc2[nH]c(=O)n(CCC(=O)N3CCN(c4ccccc4)CC3)c(=O)c2cc1OCC -6.44%

outcome, inactive:
O=C(NCCCN1CCN(c2cccc(Cl)c2)CC1)c1cnn(-c2ccc(F)cc2)c1-n1cccc1
COc1ccc(C2c3c(n(C)c4ccccc34)C(=O)N2CC(=O)Nc2cccc(Cl)c2C)cc1 (centres undefined)
CCCSc1ncc(Cl)c(C(=O)N(Cc2ccc(Cl)cc2)Cc2ccco2)n1
CCC1CCCCN1S(=O)(=O)c1cc2c3c(c1)CC(=O)N3CCC2 (centres undefined)
Cc1c(C(=O)N(C)C)sc2c1c(=O)n(-c1ccc(Cl)cc1)c(=O)n2CC(=O)C(C)(C)C
Cc1cc(NC(=O)c2cc(-c3cccc(Cl)c3)on2)n(-c2ccccc2)n1
COc1ccc(-c2noc(-c3ccc(NCc4cccnc4)c([N+](=O)[O-])c3)n2)cc1OC
CC(=O)c1ccc(NC(=O)CCc2c(C)nn(-c3ccc(N4CCOCC4)nn3)c2C)cc1
O=c1c2sc3ccccc3c2n(Cc2cccc(Cl)c2)c(=O)n1Cc1ccco1
Cc1ccc(N2CCN(C(=O)C3CCN(S(=O)(=O)c4ccc5c(c4)oc(=O)n5C)CC3)CC2C)cc1 (centres undefined)
CCCn1c(CN2CCN(c3ccc(OC)cc3)CC2)nc2c1c(=O)[nH]c(=O)n2C
CC(C)CC(=O)Nc1nnc(S(=O)(=O)N(CC(C)C)c2ccccc2)s1
COc1ccc(C(=O)Nc2cc3c(cc2C(=O)c2ccccc2Cl)OCCO3)cc1
O=C(CCOc1ccccc1)N(Cc1cccnc1)c1nc2c(F)cc(F)cc2s1
COc1ccc(NC(=O)Cn2c(=O)n(Cc3ccco3)c(=O)c3sc4ccccc4c32)cc1Cl
CCOc1ccccc1CNC(=O)CCc1cn(C)c2ccccc12
CCc1cccc(NC(=O)CN2C(=O)COc3ccc(S(=O)(=O)N4CCC(C)CC4)cc32)c1
Cc1ccc(CCNC(=O)c2cc3ccccn3n2)cc1
COc1cccc(-n2c(C)nc3c(cnn3-c3ccc(C)c(C)c3)c2=O)c1
Cc1ccc(Cn2c(C)c3cnn(CC(=O)N4CCN(c5cc(C)ccc5C)CC4)c(=O)c3c2C)cc1
COc1ccc(NC(=O)Cn2c(=O)n(Cc3ccccc3Cl)c(=O)c3cc(OC)c(OC)cc32)cc1
